# Measurements taken from PubChem BioAssay AID686979 (National Center for Advancing Translational Sciences (NCATS), 2013).
# Screen size: about 420,000 compounds; about 50,000 (12%) were called active. The inconclusive results got no clear call from the source; some entries with a clear call stand among them for comparison. Calls come from the whole dose curve; as a rule, active = well fitted inhibition curve with a large enough effect; inconclusive = small, poorly fitted or top-dose-only effect; inactive = flat fitted curve, though single readings scatter. No potency is given beside an inconclusive call; the fits are too rough.
# Assay: qHTS for Inhibitors of human tyrosyl-DNA phosphodiesterase 1 (TDP1): qHTS in cells in presence of CPT; note: nearly all actives have a fitted effect of over 55% in size
# Conditions: chicken DT40 Tdp1-/-;hTDP1 cells + 20 nM CPT, ATP luminescence, 48 h; activity change, negative = growth inhibition: at 46.2 µM (top of the series) unless noted
# Summary of the method: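 Chicken DT40 Tdp1-/- cells stably complemented with human TDP1 were seeded at 400 cells/well in medium containing 20 nM camptothecin, exposed to pin-transferred compounds, and grown at 37 °C for at least 48 hr. Viability was read as ATP luminescence.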
# % is set by controls: 0 for no effect and ±100 for the full control effect; potency is the fitted concentration of half-maximal effect; tags give direction and shape of the fitted curve.
Structure (SMILES),Potency,"activity change, negative = growth inhibition"
O=C(NCc1cccc(Cl)c1)c1cccc2c(-c3cccnc3)coc12,active: 16.4 µM,–
Cc1ccccc1CC(=O)NCCN1CCOCC1,–,inactive: 13.4%
O=C(CSc1nnc(-c2ccccc2)c(-c2ccccc2)n1)NCCc1ccccc1,"inconclusive [inhibitor, single point]",–
CC(=O)NC(c1ccccc1)c1nc(-c2ccc(F)c(Cl)c2)cs1 (configuration not stated),"inconclusive [inhibitor, partial curve]",–
O=C(COc1ccccc1)NCC(=O)Nc1ccncc1,–,inactive: -20.4%
Cc1cc(C)nc(N/N=C/c2ccccc2OCc2ccc(Cl)cc2)n1,active: 16.4 µM,–
COc1ccc(CNC(=O)C2CCN(S(=O)(=O)c3ccc4c(c3)C(C)(C)C(=O)N4C)CC2)cc1,–,inactive: -15.6%
Cc1cc(=O)n(CC(=O)N2CCCc3ccccc32)c2c1c(C)nn2-c1cccc(F)c1,active: 16.4 µM,–
Cc1cccc(NC(=O)CSc2nnc([C@@H]3CCCN3C(=O)OC(C)(C)C)o2)c1C,"inconclusive [inhibitor, partial curve]",–
COc1ccc(N2CCN(C(=O)CN3CCN(C(c4ccccc4)c4ccccc4)CC3)CC2)cc1,"inconclusive [inhibitor, single point]",–
Cn1c(Cn2cnc3ccccc32)nnc1SCc1ccccc1,"inconclusive [inhibitor, partial curve, poor fit]",–
Cc1cc(C)c(OCC(=O)N(Cc2ccc(N(C)C)cc2)CC2CCCO2)c(C)c1 (configuration not stated),active: 16.4 µM,–
CCn1c(=O)c2cc(C(=O)NCc3ccc(F)cc3Cl)sc2c2ccccc21,–,inactive: 0.697%
COc1ccc(C(=O)Nc2ccccc2C(=O)Nc2ccccn2)cc1,"inconclusive [inhibitor, single point]",–
CC(NC(=O)CCNS(=O)(=O)c1cccc2nonc12)c1ccccc1 (configuration not stated),–,inactive: -1.96%
CNC(=O)c1c(NC(=O)CS(=O)(=O)c2ccc(F)cc2)sc(C)c1C,"inconclusive [inhibitor, single point]",–
O=C(NN1C(=O)NC2(CCCCC2)C1=O)c1ccc(-c2ccccc2Cl)o1,"inconclusive [inhibitor, single point]",–
COCC(C)NC(=O)NC1(C(F)(F)F)Oc2ccc(Cl)cc2O1 (configuration not stated),active: 13 µM,–
CCOC(=O)c1[nH]c(C)c(CCC(=O)Nc2ccccc2OCC)c1C,"inconclusive [inhibitor, single point]",–
Cc1c(C(=O)N2CCCc3ccccc32)oc2ccc(S(=O)(=O)N3CCOCC3)cc12,active: 14.1 µM,–
CC1=C(C(=O)Nc2ccccn2)C(c2ccc(Br)cc2)NC(=S)N1 (configuration not stated),"inconclusive [inhibitor, single point]",–
CCOc1cc(C)c(Cl)cc1S(=O)(=O)n1cnc2ccccc21,–,inactive: -28.1%
CCc1cccc(C)c1NC(=O)CCCn1c(C)c2cnn(-c3ccccc3)c(=O)c2c1C,"inconclusive [inhibitor, single point]",–
Cc1ccc(-c2[nH]ncc2/C=N/n2c(C)nc3ccccc3c2=O)cc1,–,inactive: 0.894%

Structure (SMILES),Potency,"activity change, negative = growth inhibition"
COc1cccc(C2CC(c3ccc(NS(C)(=O)=O)cc3)=NN2C(=O)c2ccccc2)c1OC (configuration not stated),"inconclusive [inhibitor, partial curve]",–
Cc1cc(S(=O)(=O)NCCCN2CCOCC2)c(C)cc1Cl,"inconclusive [inhibitor, single point]",–
O=C(NNC(=O)c1ccccc1-n1cccc1)c1cncc(Br)c1,–,inactive: -6.88%
CC(C)c1ccc(CN2CCC(n3nccc3NC(=O)C3CCCC3)CC2)cc1,"inconclusive [inhibitor, single point]",–
Nc1nc2c(ncn2[C@@H]2O[C@H](CNC(=O)[C@H](N)C3CCCCC3)[C@@H](O)[C@H]2O)c(=O)[nH]1,–,inactive: -15.9%
CC(C)(C)NC(=O)C(c1c[nH]c2ccccc12)N(C(=O)Cn1nnc(-c2ccc(F)cc2)n1)c1cccc(O)c1 (configuration not stated),"inconclusive [inhibitor, single point]",–
C=C(C)COc1ccc(-c2nc(N)ncc2-c2ccc(Cl)cc2)c(O)c1,active: 23.1 µM,–
Cc1ccc(NC(=O)CCC(=O)NNS(=O)(=O)c2ccccc2)cc1C,"inconclusive [inhibitor, single point]",–
CN(C)CCCN(C(=O)c1ccco1)c1nc2c(F)cc(F)cc2s1,"inconclusive [inhibitor, partial curve]",–
COc1cccc(C(=O)N/N=C(\C)c2cccc(NC(=O)c3ccc(F)cc3)c2)c1OC,"inconclusive [inhibitor, single point]",–
CN1C(=O)CC(C(=O)Nc2ccc(C(=O)O)cc2)SC1=Nc1ccc(Cl)cc1 (configuration not stated),–,inactive: 4.04%
Cc1cccc(Nc2ncnc(N)n2)c1,–,inactive: 4.74%
COc1ccc2c(C)c(CCC(=O)NCCc3ccc(OC)c(OC)c3)c(=O)oc2c1,active: 13 µM,–
COc1ccc(C(=O)Nc2nnc(SCc3cc(=O)c4cccc(F)c4[nH]3)s2)cc1,"inconclusive [inhibitor, single point]",–
CC1(C)Cc2cccc(OCC(=O)OCC(=O)NCc3ccccc3)c2O1,–,inactive: -8.74%
COc1cccc(-c2nnc(SCC(=O)N(C)c3ccccc3)o2)c1,"inconclusive [inhibitor, single point]",–
COc1cc(C(=O)Oc2cccc(/C=N/NC(=O)c3cccnc3)c2)cc(OC)c1OC,active: 6.51 µM,–
CN1/C(=C/C2CC(=O)N(c3cccc4ccccc34)C2=O)C(C)(C)c2ccccc21 (configuration not stated),"inconclusive [inhibitor, single point]",–
CCN(CC)c1ccc(NS(=O)(=O)c2cc(-c3onc(C)c3C)ccc2OC)c(C)c1,active: 23.1 µM,–
CC1=NN(C2=NS(=O)(=O)c3ccccc32)C(C)(O)C1 (configuration not stated),active: 0.411 µM,–
CCOC(=O)Cn1c(=O)cc(C)c2cccc(C)c21,–,inactive: -1.77%
Cc1ccc(NC(=O)CSc2ccc(C(N)=O)cc2[N+](=O)[O-])cc1C,active: 10.3 µM,–
Oc1ccccc1/C=N/c1c(-c2ccco2)nc2ccccn12,–,inconclusive: -31.8% [inhibitor]
